The supplement of paper PMC3334620
Over roughly 33,000 sequences, “E-score (-0.5 to 0.5)” has its median near -0.035; the highest 2% begin near 0.35. The list shows a part of the results.

What follows are sequences tested against T1, Pdr3 (UniProt P33200) (assay: PBM E-score (8-mer binding enrichment) (E-score (-0.5 to 0.5)); higher = stronger / more preferred TF binding; most listed sequences are background and not binding sites). Settings: protein concentration: 200 nM; construct: GST-full length.
T1 sequence: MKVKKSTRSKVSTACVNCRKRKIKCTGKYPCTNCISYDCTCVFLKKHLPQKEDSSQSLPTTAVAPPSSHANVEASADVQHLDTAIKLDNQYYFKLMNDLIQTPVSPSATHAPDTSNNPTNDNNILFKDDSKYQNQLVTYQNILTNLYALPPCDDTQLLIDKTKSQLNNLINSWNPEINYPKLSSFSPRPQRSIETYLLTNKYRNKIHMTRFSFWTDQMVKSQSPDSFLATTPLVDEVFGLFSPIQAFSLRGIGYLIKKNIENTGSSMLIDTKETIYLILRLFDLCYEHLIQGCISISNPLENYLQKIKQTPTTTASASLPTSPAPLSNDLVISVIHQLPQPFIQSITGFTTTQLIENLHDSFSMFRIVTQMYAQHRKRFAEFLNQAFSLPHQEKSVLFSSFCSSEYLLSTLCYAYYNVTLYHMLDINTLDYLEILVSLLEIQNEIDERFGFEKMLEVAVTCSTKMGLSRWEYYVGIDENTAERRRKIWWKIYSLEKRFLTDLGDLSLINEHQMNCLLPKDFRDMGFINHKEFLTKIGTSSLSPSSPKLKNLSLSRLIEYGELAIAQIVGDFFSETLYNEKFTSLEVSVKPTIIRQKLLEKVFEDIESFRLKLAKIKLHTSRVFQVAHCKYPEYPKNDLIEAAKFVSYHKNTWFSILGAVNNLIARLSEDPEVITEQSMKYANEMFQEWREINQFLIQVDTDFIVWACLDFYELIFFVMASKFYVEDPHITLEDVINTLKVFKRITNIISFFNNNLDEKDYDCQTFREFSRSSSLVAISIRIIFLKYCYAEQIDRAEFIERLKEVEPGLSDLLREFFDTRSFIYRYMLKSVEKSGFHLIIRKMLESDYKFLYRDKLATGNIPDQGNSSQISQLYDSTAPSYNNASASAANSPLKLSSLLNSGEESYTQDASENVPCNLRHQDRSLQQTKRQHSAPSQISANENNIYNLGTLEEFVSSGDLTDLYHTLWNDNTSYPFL
Procedure, shortened: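 Masliner-normalised scans of fluorescent anti-GST signal were the basis for scoring. That signal came from GST-tagged yeast transcription factors applied at about 100-200 nM to double-stranded universal all-10-mer Agilent arrays on fresh or once-stripped slides. Each ungapped eight-base word, pooled with its reverse complement, received an E-score from the Universal PBM Analysis Suite.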

Sequence | PBM E-score
ACTTTGTC | -0.0363
CCAGCTCA | -0.1
GGGGCGTA | -0.114
CACTACCG | -0.0568
CCGGCTGA | 0.311
TCGACACA | -0.116
ATAGAGTA | -0.14
GGTGCGAA | -0.0336
ACAAGCCG | 0.174
GAACACGA | -0.0359
GGTTCAAC | 0.0125
AAGATAGT | 0.107
CCCAGATA | -0.121
ATTGACCG | 0.0868
ATCTTATA | -0.0171
ACCATTCA | -0.0491
CAACGCGG | 0.271
ACAGCCGC | -0.0218
GAAGGCCA | -0.151
AATAACAA | -0.0439
CACTACTG | -0.149
AAGAAAAG | 0.0411

Sequence | PBM E-score
TCGTACAA | -0.211
CCAAGCCA | -0.245
CGTTCATC | -0.0152
ATACGTAC | -0.101
ATTACAGA | -0.00478
AAGAAGTG | 0.0153
CAACGTAA | -0.261
ATAATTGC | -0.0324
CGATAAGA | 0.153
CGTCTGAG | 0.00682
GGTGGCAA | -0.0928
AGAGTTGG | -0.138
CAAGGTAC | -0.25
CATGTCTC | 0.0767
CCTACCTC | -0.0483
GTCGGGAA | 0.176
CCCCCGTA | -0.278
CTACTGAA | -0.0687
TACTTCAA | -0.129
CGGGCAAG | 0.125
CCAAATTC | -0.0566
ATTGTAGG | 0.0323

Sequence | PBM E-score
CCCTGGAG | -0.267
AGGGGACA | -0.0627
CTATATTA | 0.0664
ATGACCCA | -0.0734
CCCATAGC | -0.0517
AAGGAAGA | -0.2
ACCTGCTG | 0.0408
AAACCCGA | 0.243
AGGCATGC | 0.0433
CCCATGTA | -0.114
CGCGAGAC | -0.0718
AGGAGTTC | -0.115
AACTTCAG | -0.101
GGTTGAAA | -0.0161
AAGTGTAC | -0.178
GTGATTGA | 0.0101
CGCAAACC | -0.0602
CCATATTA | 0.0462
GAGATAGA | 0.00371
TCCATGGA | 0.423
GGCCTCTA | -0.32
TAGTGTAA | -0.134

Sequence | PBM E-score
TATGCCCA | -0.124
AAATGCAC | 0.0895
ATCAAGTG | -0.0714
CGGGGGAC | 0.0849
CAAAGTAG | -0.174
AATCTCCA | -0.15
ACTATAGG | -0.179
ACTTCACC | 0.106
AGCTTATA | -0.251
CCCTGAGC | 0.00121
CATTGGAA | -0.134
ACCATCAG | -0.0741
CTGGCCTC | 0.027
CCTCTAAG | -0.261
GGGCGTAA | -0.122
GACTTCTA | -0.24
AGGCAGAC | -0.248
ACTCGACT | -0.184
GAGCCCAC | -0.0132
CCTGAACA | -0.0865
ACGGTGGA | -0.1
CCTAAGTC | -0.237

Sequence | PBM E-score
AGTGAAAT | -0.0987
CTAGCTGA | -0.165
AGTTATCC | 0.234
TGCGGGAA | 0.313
GCTCAACC | -0.0735
GAAATTGA | 0.0788
AGTAAGAA | 0.0631
AAGAGAAA | -0.0428
ACGTGTCC | 0.0947
CCAAACAC | -0.0593
GCGTGGGA | -0.113
AACCGCTG | -0.114
AATACCAG | 0.0559
GCATTCTA | -0.127
CGAAAGGA | 0.19
AAAGCACG | -0.184
CACCCCCA | -0.165
AAGACCTG | -0.155
AAAGCGAG | 0.143
GGTGCAAA | -0.105
ATACCAGA | -0.0324
ACCAGACG | -0.157
